Earlier results, collected in article PMC11006913.
This is one part of the list.

Molecular target: HOXD13 Q325K (Homo sapiens) (UniProt P35453)
Conditions: PBM; conditions not shown; double strand, one strand shown; scale: upbm affinity estimate (log intensity, higher = more binding, comparable within an allelic series)

| Sequence | binding signal |
| --- | --- |
| AATACTAA [8-mer AATACTAA] | 10.9 |
| AATAACCC [8-mer AATAACCC] | 11 |
| ATGTCTAA [8-mer ATGTCTAA] | 10.8 |
| ATATAAAC [8-mer ATATAAAC] | 12.3 |
| AGAACATA [8-mer AGAACATA] | 10.5 |
| AATTTATA [8-mer AATTTATA] | 12.4 |
| ATAAAACA [8-mer ATAAAACA] | 12.2 |
| CTTATAAA [8-mer CTTATAAA] | 12.2 |

Molecular target: HOXD13 Q325R (Homo sapiens) (UniProt P35453)
Conditions: PBM; conditions not shown; double strand, one strand shown; scale: upbm affinity estimate (log intensity, higher = more binding, comparable within an allelic series)

| Sequence | binding signal |
| --- | --- |
| AATACTAA [8-mer AATACTAA] | 11.4 |
| ATGTATCG [8-mer ATGTATCG] | 10.8 |
| CTACTTTA [8-mer CTACTTTA] | 11 |
| AATAACCC [8-mer AATAACCC] | 11 |
| CCCTTTTA [8-mer CCCTTTTA] | 10.9 |
| ATAATAAA [8-mer ATAATAAA] | 12.1 |
| AGGTAGTA [8-mer AGGTAGTA] | 11.1 |
| ATGTCTAA [8-mer ATGTCTAA] | 11.3 |
| ATATAAAC [8-mer ATATAAAC] | 12.6 |
| AGAACATA [8-mer AGAACATA] | 10.7 |
| ACTAACAA [8-mer ACTAACAA] | 10.8 |
| AATTTATA [8-mer AATTTATA] | 12.2 |
| ATAAAACA [8-mer ATAAAACA] | 12.3 |
| ATATTGGA [8-mer ATATTGGA] | 10.8 |
| GTAAAACA [8-mer GTAAAACA] | 10.9 |
| ACCTTTTA [8-mer ACCTTTTA] | 11 |
| CACGTAAA [8-mer CACGTAAA] | 11 |
| CTTATAAA [8-mer CTTATAAA] | 12.1 |
